Hit rate of the full screen: of about 310,000 compounds, about 2,200 (0.71%) showed an effect of 50% or more. The effect is printed as a negative number. The list shows a part of the results.
The molecules below were run against human ether-à-go-go-related gene (hERG) potassium channel (human, UniProt Q12809) (assay: primary screen, population patch clamp on CHO cells stably expressing hERG).
human ether-à-go-go-related gene (hERG) potassium channel, sequence (Q12809 whole entry, looked up): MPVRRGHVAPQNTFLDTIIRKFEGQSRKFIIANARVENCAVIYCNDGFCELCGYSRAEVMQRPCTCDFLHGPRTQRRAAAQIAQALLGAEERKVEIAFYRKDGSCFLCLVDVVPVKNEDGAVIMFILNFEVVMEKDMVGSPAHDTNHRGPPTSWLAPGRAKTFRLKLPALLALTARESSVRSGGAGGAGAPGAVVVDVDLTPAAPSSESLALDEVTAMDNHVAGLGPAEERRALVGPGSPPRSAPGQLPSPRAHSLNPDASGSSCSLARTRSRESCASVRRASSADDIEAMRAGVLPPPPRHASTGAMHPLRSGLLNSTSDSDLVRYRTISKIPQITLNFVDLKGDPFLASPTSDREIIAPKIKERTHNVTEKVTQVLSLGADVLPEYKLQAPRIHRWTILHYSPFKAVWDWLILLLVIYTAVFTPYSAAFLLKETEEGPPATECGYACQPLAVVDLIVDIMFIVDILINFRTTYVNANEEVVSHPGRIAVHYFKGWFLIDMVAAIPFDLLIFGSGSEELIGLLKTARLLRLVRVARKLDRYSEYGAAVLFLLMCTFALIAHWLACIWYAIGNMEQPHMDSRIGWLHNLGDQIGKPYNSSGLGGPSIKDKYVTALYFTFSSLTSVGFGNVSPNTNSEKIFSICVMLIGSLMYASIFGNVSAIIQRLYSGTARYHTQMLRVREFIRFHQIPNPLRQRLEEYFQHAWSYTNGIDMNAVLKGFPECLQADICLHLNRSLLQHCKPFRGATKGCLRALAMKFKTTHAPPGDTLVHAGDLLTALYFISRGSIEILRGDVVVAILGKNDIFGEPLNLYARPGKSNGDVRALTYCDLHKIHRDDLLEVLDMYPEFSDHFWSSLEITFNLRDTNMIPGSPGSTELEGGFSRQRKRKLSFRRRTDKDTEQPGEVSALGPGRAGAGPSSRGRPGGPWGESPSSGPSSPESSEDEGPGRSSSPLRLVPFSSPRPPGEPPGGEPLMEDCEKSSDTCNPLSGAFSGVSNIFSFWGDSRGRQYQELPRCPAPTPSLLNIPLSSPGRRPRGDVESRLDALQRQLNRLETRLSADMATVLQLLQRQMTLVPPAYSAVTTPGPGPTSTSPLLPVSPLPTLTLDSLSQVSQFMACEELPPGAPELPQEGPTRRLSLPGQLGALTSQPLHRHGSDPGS

SMILES	hERG current change (%, negative = inhibition) at 1uM
COc1ccc(NS(=O)(=O)c2ccc(NC(=O)Cc3cccs3)cc2)cc1	11.8%
O=C(COC(=O)/C=C/c1cccc(Br)c1)NCCC1=CCCCC1	22%
O=C(NCc1cccnc1)/C(=C/c1ccc(-c2ccc(Cl)cc2)o1)S(=O)(=O)c1ccccc1	7.41%
Cc1ccccc1-n1nc2c(c1NC(=O)c1c(-c3ccccc3Cl)noc1C)CSC2	7.29%
CCOC(=O)C1=C(C)OC(N)=C(C#N)C1c1cc(F)ccc1F (stereo not shown)	5.75%
CCCCOC(=O)c1sc2nc(C)cc(C)c2c1N	3.42%
Cc1ccc(-c2cc(C(=O)N(C)CC(=O)Nc3ccccc3Br)c3ccccc3n2)o1	13.6%
Cc1ccccc1NC(=O)CN1CCN(C)CC1.O=C(O)C(=O)O	-1.46%
CCCCCCC(=O)N/N=C/c1ccc(Br)cc1	8.34%
CC(C)n1c(NCc2ccccc2O)nc2ccccc21	6.66%
COC(=O)c1c(NC(=O)c2ccco2)sc(C(=O)N(C)C)c1C	2.37%
COc1ccc(Cl)cc1S(=O)(=O)N1CCCC(C(=O)N2CCCC2)C1 (stereo not shown)	7.93%
Cc1noc(C)c1S(=O)(=O)N(CC(=O)NC1CCCC1)c1ccc(C(C)C)cc1	14.6%
Cc1nc2ccccc2c(=O)n1/N=C/c1ccc([N+](=O)[O-])o1	-18.8%
CCCNc1nc2c(c(=O)[nH]c(=O)n2C)n1CCC(C)C	4.03%
OC(CN1CCOCC1)Cn1c(-c2cccc(Cl)c2)nc2ccccc21 (stereo not shown)	-2.2%
O=C1CC(C(=O)Nc2ccc(Cl)c(Cl)c2)S/C(=N\N=C\c2ccco2)N1 (stereo not shown)	-3.88%
Cc1ccnc(SCCn2c(N3CC(C)OC(C)C3)nc3c2c(=O)n(C)c(=O)n3C)n1 (stereo not shown)	0.925%
CC1CCN(S(=O)(=O)c2ccc(NC(=O)c3ccco3)cc2)CC1	0.115%
COc1ccc(OC)c(Nc2nc(-c3cccc([N+](=O)[O-])c3)nc3ccccc23)c1	-1.31%
COc1ccc(Cn2c(=N)c(C(=O)NCC3CCCO3)cc3c(=O)n4ccccc4nc32)cc1 (stereo not shown)	-85%
C=CCn1c(SCC(=O)c2c(N)n(C)c(=O)n(C)c2=O)nc2sc(C)c(C)c2c1=O	3.31%
CCCNC(=O)c1noc2c1CCc1ccccc1-2	9.55%
Cc1noc(C)c1S(=O)(=O)Nc1ccc(C(=O)N2CCC(C)CC2)cc1	1.05%
COCCN1CCn2c(nc3cc([N+](=O)[O-])ccc32)C1	7.61%
CC(OC(=O)c1cc2ccccc2cc1O)C(=O)Nc1ccc(S(N)(=O)=O)cc1 (stereo not shown)	-3.93%
O=C(NCc1ccco1)c1cc(NS(=O)(=O)c2cccc([N+](=O)[O-])c2)ccc1O	10.5%
CCN(c1cccc(C)c1)S(=O)(=O)c1c(C)[nH]c(=O)[nH]c1=O	8.54%

SMILES	hERG current change (%, negative = inhibition) at 1uM
CCS(=O)(=O)c1ccc2c(c1)N(S(C)(=O)=O)CC(C(=O)NCCOC)O2 (stereo not shown)	10.6%
Cc1ccc(S(=O)(=O)N2CCCCC2)cc1NC(=O)COC(=O)Cc1ccc(Cl)cc1	5.34%
COc1ccc(-c2c(C)nn3c(N4CCC(C(=O)NCCN(C)C)CC4)cc(C)nc23)cc1OC	2.6%
CCOc1ccc(CCNC(=O)Cn2c(=O)c3cccn3c3cccnc32)cc1	0.911%
CCCc1cc(C(=O)NC2CCCCC2)no1	3.58%
CCC1(C)Cc2c(C#N)c(N)n(-c3ccccc3)c(=S)c2CO1 (stereo not shown)	1.51%
COc1ccc(NC2=C(C(C)=O)C(c3ccc4c(c3)OCO4)C(C(C)=O)C(C)(O)C2)cc1 (stereo not shown)	12.2%
Cc1ccc(CNC(=O)C2CCN(S(=O)(=O)c3c(C)noc3C)CC2)cc1	13.7%
Nc1ncnc2c1nc(SCCO)n2Cc1ccccc1	9.92%
O=C(Oc1ccc2c3c(c(=O)oc2c1)CCCC3)c1cccs1	1.04%
Cc1cc(NC(=O)CSc2nc3c(c(=O)n(C)c(=O)n3C)n2C(C)C)no1	15.3%
COCCNC(=O)c1onc(CSc2ccc(F)c(F)c2)c1C(=O)NCCOC	12%
Nc1ccc(C2(c3ccc(N)cc3)CN3CCC2CC3)cc1	4.16%
Cc1cc(C)nc(Nc2n[nH]c(-c3ccccc3Cl)n2)n1	10.1%
O=C(/C=C/c1ccc(Cl)cc1)N1CCN(c2ccc([N+](=O)[O-])c(N3CCOCC3)c2)CC1	-11.1%
COc1ccc(-n2ncc3c(NCc4ccco4)ncnc32)cc1	2.22%
COC(=O)C1CCN(C(=O)c2cc(-c3ccc(Cl)s3)nc3ccccc23)CC1	-0.0413%
Cl.O=C(Nc1nc2n(n1)C(c1ccccc1)C=C(c1ccccc1)N2)c1ccco1 (stereo not shown)	4.12%
c1ccn2cc(-c3ccc4c(c3)OCCO4)nc2c1	4.22%
Oc1c(N=NC(=S)Nc2ccccc2F)c2ccccc2n1Cc1ccccc1	20.3%
CCc1ccc(C(O)(CC(C)C)C(CN2CCOCC2)c2ccccc2)cc1.Cl (stereo not shown)	13.1%
CN(C)c1ccc(C(CNC(=O)c2ccccc2F)c2c[nH]c3ccccc23)cc1 (stereo not shown)	-7%
Clc1ccc(C2=Nn3c(Cn4nnc5ccccc54)nnc3SC2)cc1	15.3%
COc1ccc(Cn2c(CCC(=O)NCc3ccco3)nc3cccnc32)cc1	-0.605%
Cc1cc(C)n(CC(=O)c2cccc(N)c2)n1	10.6%
CC1CCCN(C(=O)CNC(=O)c2ccco2)C1 (stereo not shown)	8.22%
Cc1ccc(S(=O)(=O)CCC(=O)OCC(=O)Nc2ncc(Cl)cc2Cl)cc1	4.52%

Source: article PMC4336329 (PLoS ONE, 2015)
